# In the supplement of paper PMC8728848:
# This is one part of the list.
# How the values were obtained:
# Assay in all cases: glycan array binding signal (z-score within array); higher = stronger binding
# Details in all cases: glycan notation: IUPAC condensed, linker removed; mutation: H84T
# [1] = target: Gal(b1-4)GlcNAc(b1-3)Gal(b1-4)GlcNAc(b1-3)Gal(b1-4)GlcNAc(b1-3)Gal(b1-4)GlcNAc(b1-2)Man(a1-3)[Gal(b1-4)GlcNAc(b1-3)Gal(b1-4)GlcNAc(b1-3)Gal(b1-4)GlcNAc(b1-3)Gal(b1-4)GlcNAc(b1-2)Man(a1-6)]Man(b1-4)GlcNAc(b1-4)GlcNAc
# How it was run: (§1)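 Columns mapping to the same glycan were averaged after glycan names were converted to IUPAC-condensed notation. The data come from 3228 arrays in the Consortium for Functional Glycomics database, limited to those with an available protein sequence. Binding is reported as a within-array Z-score averaged across arrays of one protein sequence and across linkers.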
# [2] = target: Gal(b1-4)GlcNAc(b1-3)Gal(b1-4)GlcNAc(b1-3)Gal(b1-4)GlcNAc(b1-3)Gal(b1-4)GlcNAc(b1-2)Man(a1-3)[Gal(b1-4)GlcNAc(b1-3)Gal(b1-4)GlcNAc(b1-3)Gal(b1-4)GlcNAc(b1-3)Gal(b1-4)GlcNAc(b1-2)Man(a1-6)]Man(b1-4)GlcNAc(b1-4)[Fuc(a1-6)]GlcNAc
# How it was run: as §1
# [3] = target: Gal(b1-4)GlcNAc(b1-3)Gal(b1-4)GlcNAc(b1-3)Gal(b1-4)GlcNAc(b1-3)Gal(b1-4)GlcNAc(b1-2)[Gal(b1-4)GlcNAc(b1-3)Gal(b1-4)GlcNAc(b1-3)Gal(b1-4)GlcNAc(b1-3)Gal(b1-4)GlcNAc(b1-6)]Man(a1-6)[Gal(b1-4)GlcNAc(b1-3)Gal(b1-4)GlcNAc(b1-3)Gal(b1-4)GlcNAc(b1-3)Gal(b1-4)GlcNAc(b1-2)Man(a1-3)]Man(b1-4)GlcNAc(b1-4)[Fuc(a1-6)]GlcNAc
# How it was run: as §1
# [4] = target: Gal(b1-4)GlcNAc(b1-3)Gal(b1-4)GlcNAc(b1-3)Gal(b1-4)GlcNAc(b1-3)Gal(b1-4)GlcNAc(b1-3)Gal(b1-4)GlcNAc(b1-2)Man(a1-3)[Gal(b1-4)GlcNAc(b1-3)Gal(b1-4)GlcNAc(b1-3)Gal(b1-4)GlcNAc(b1-3)Gal(b1-4)GlcNAc(b1-3)Gal(b1-4)GlcNAc(b1-2)Man(a1-6)]Man(b1-4)GlcNAc(b1-4)GlcNAc
# How it was run: as §1
# [5] = target: Gal(b1-4)GlcNAc(b1-3)Gal(b1-4)GlcNAc(b1-3)Gal(b1-4)GlcNAc(b1-3)Gal(b1-4)GlcNAc(b1-3)Gal(b1-4)GlcNAc(b1-2)Man(a1-3)[Gal(b1-4)GlcNAc(b1-3)Gal(b1-4)GlcNAc(b1-3)Gal(b1-4)GlcNAc(b1-3)Gal(b1-4)GlcNAc(b1-3)Gal(b1-4)GlcNAc(b1-2)Man(a1-6)]Man(b1-4)GlcNAc(b1-4)[Fuc(a1-6)]GlcNAc
# How it was run: as §1
# [6] = target: Gal(b1-4)GlcNAc(b1-3)Gal(b1-4)GlcNAc(b1-3)Gal(b1-4)GlcNAc(b1-3)Gal(b1-4)GlcNAc(b1-3)Gal(b1-4)GlcNAc(b1-2)[Gal(b1-4)GlcNAc(b1-3)Gal(b1-4)GlcNAc(b1-3)Gal(b1-4)GlcNAc(b1-3)Gal(b1-4)GlcNAc(b1-3)Gal(b1-4)GlcNAc(b1-6)]Man(a1-6)[Gal(b1-4)GlcNAc(b1-3)Gal(b1-4)GlcNAc(b1-3)Gal(b1-4)GlcNAc(b1-3)Gal(b1-4)GlcNAc(b1-3)Gal(b1-4)GlcNAc(b1-2)Man(a1-3)]Man(b1-4)GlcNAc(b1-4)[Fuc(a1-6)]GlcNAc
# How it was run: as §1
# [7] = target: Gal(b1-4)GlcNAc(b1-3)Gal(b1-4)GlcNAc(b1-3)Gal(b1-4)GlcNAc(b1-3)Gal(b1-4)GlcNAc(b1-3)Gal(b1-4)GlcNAc(b1-3)Gal(b1-4)GlcNAc(b1-2)Man(a1-3)[Gal(b1-4)GlcNAc(b1-3)Gal(b1-4)GlcNAc(b1-3)Gal(b1-4)GlcNAc(b1-3)Gal(b1-4)GlcNAc(b1-3)Gal(b1-4)GlcNAc(b1-3)Gal(b1-4)GlcNAc(b1-2)Man(a1-6)]Man(b1-4)GlcNAc(b1-4)GlcNAc
# How it was run: as §1
# [8] = target: Gal(b1-4)GlcNAc(b1-3)Gal(b1-4)GlcNAc(b1-3)GalNAc
# How it was run: as §1
# [9] = target: Gal(b1-4)GlcNAc(b1-3)Gal(b1-4)GlcNAc(b1-3)[Gal(b1-4)GlcNAc(b1-3)Gal(b1-4)GlcNAc(b1-6)]GalNAc
# How it was run: as §1
# [10] = target: Gal(b1-4)GlcNAc(b1-3)Gal(b1-4)GlcNAc(b1-6)[Gal(b1-3)]GalNAc
# How it was run: as §1
# [11] = target: Gal(b1-4)GlcNAc(b1-3)Gal(b1-4)[Fuc(a1-3)]GlcNAc(b1-3)Gal(b1-4)[Fuc(a1-3)]GlcNAc
# How it was run: as §1
# [12] = target: Gal(b1-4)GlcNAc(b1-3)GalNAc
# How it was run: as §1
# [13] = target: Gal(b1-4)GlcNAc(b1-3)[Fuc(a1-3)GlcNAc(b1-6)]Gal(b1-4)Glc
# How it was run: as §1
# [14] = target: Gal(b1-4)GlcNAc(b1-3)[Gal(b1-4)GlcNAc(b1-6)]Gal(b1-4)GlcNAc
# How it was run: as §1
# [15] = target: Gal(b1-4)GlcNAc(b1-3)[GlcNAc(b1-6)]Gal(b1-4)GlcNAc
# How it was run: as §1
# [16] = target: Gal(b1-4)GlcNAc(b1-6)Gal(b1-4)GlcNAc
# How it was run: as §1
# [17] = target: Gal(b1-4)GlcNAc(b1-6)GalNAc
# How it was run: as §1
# [18] = target: Gal(b1-4)GlcNAc(b1-6)[Gal(b1-3)]GalNAc
# How it was run: as §1
# [19] = target: Gal(b1-4)GlcNAc(b1-6)[Gal(b1-4)GlcNAc(b1-3)]GalNAc
# How it was run: as §1
# Gal(b1-4)GlcNAc6P = target: Gal(b1-4)GlcNAc6P
# How it was run: as §1
# Gal(b1-6)Gal = target: Gal(b1-6)Gal
# How it was run: as §1
# Gal3S(b1-3)GalNAc = target: Gal3S(b1-3)GalNAc
# How it was run: as §1
# Gal3S(b1-3)GlcNAc = target: Gal3S(b1-3)GlcNAc
# How it was run: as §1
binder,measurement,setting,value
Banana lectin (Musa acuminata) (protein) MNGAIKVGAWGGNGGSAFDMGPAYRIISVKIFSGDVVDGVDVTFTYYGKTETRHYGGSGGTPHEIVLQEGEYLVGMAGEVANYTGAVVLGKLGFSTNKKAYGPFGNTGGTPFSLPIAAGKISGFFGRGGKFLDAIGVYLEPLEHHHHHH,glycan array binding signal (z-score),[1],-0.165
same,glycan array binding signal (z-score),[2],-0.167
same,glycan array binding signal (z-score),[3],-0.109
same,glycan array binding signal (z-score),[4],-0.155
same,glycan array binding signal (z-score),[5],-0.129
same,glycan array binding signal (z-score),[6],-0.137
same,glycan array binding signal (z-score),[7],-0.092
same,glycan array binding signal (z-score),[8],-0.152
same,glycan array binding signal (z-score),[9],-0.141
same,glycan array binding signal (z-score),[10],-0.132
same,glycan array binding signal (z-score),[11],-0.182
same,glycan array binding signal (z-score),[12],-0.189
same,glycan array binding signal (z-score),[13],-0.197
same,glycan array binding signal (z-score),[14],-0.171
same,glycan array binding signal (z-score),[15],-0.216
same,glycan array binding signal (z-score),[16],-0.206
same,glycan array binding signal (z-score),[17],-0.152
same,glycan array binding signal (z-score),[18],-0.173
same,glycan array binding signal (z-score),[19],-0.166
same,glycan array binding signal (z-score),Gal(b1-4)GlcNAc6P,-0.137
same,glycan array binding signal (z-score),Gal(b1-6)Gal,-0.198
same,glycan array binding signal (z-score),Gal3S(b1-3)GalNAc,-0.183
same,glycan array binding signal (z-score),Gal3S(b1-3)GlcNAc,-0.162
